The target of assay [1] is T1, HURP (Hepatoma Upregulated Protein) (human (endogenous in HeLa Kyoto)) (UniProt Q15398).
T1 sequence: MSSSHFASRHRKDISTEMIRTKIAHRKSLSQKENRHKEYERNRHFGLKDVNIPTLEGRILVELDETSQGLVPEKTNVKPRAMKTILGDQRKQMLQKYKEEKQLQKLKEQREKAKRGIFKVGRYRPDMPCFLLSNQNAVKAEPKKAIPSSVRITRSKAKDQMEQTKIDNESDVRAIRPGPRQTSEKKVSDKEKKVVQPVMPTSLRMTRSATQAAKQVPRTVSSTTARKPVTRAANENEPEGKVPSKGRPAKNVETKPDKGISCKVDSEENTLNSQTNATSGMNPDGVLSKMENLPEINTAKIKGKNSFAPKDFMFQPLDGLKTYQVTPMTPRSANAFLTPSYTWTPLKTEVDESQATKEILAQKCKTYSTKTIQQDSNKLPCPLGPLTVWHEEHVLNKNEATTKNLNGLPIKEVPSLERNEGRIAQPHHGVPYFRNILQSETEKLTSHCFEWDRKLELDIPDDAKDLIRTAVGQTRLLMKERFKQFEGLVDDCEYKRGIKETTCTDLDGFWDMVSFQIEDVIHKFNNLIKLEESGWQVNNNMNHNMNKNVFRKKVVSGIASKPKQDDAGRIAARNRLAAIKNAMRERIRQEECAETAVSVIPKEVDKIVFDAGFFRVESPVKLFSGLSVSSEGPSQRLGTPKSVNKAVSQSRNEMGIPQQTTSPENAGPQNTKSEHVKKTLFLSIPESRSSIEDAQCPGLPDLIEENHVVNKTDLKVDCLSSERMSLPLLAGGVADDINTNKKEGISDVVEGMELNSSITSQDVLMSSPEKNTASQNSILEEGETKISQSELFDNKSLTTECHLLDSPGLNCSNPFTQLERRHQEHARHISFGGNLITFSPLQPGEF
Nature of the assay: co-IP; HeLa Kyoto mitotic cell extracts (Nocodazole arrest, RIPA buffer, 1 mg per IP); IP with anti-HURP antibodies (ab70744, GKAP or DHL5 antisera) on protein A agarose, 4°C; Western blot; controls pre-immune IgG, rabbit IgG or anti-GFP antibody. Background: Immunoblotting shows a protein as a band on a membrane.

Amino acid sequences for entries named in this document (tags omitted).
UniProt P33176: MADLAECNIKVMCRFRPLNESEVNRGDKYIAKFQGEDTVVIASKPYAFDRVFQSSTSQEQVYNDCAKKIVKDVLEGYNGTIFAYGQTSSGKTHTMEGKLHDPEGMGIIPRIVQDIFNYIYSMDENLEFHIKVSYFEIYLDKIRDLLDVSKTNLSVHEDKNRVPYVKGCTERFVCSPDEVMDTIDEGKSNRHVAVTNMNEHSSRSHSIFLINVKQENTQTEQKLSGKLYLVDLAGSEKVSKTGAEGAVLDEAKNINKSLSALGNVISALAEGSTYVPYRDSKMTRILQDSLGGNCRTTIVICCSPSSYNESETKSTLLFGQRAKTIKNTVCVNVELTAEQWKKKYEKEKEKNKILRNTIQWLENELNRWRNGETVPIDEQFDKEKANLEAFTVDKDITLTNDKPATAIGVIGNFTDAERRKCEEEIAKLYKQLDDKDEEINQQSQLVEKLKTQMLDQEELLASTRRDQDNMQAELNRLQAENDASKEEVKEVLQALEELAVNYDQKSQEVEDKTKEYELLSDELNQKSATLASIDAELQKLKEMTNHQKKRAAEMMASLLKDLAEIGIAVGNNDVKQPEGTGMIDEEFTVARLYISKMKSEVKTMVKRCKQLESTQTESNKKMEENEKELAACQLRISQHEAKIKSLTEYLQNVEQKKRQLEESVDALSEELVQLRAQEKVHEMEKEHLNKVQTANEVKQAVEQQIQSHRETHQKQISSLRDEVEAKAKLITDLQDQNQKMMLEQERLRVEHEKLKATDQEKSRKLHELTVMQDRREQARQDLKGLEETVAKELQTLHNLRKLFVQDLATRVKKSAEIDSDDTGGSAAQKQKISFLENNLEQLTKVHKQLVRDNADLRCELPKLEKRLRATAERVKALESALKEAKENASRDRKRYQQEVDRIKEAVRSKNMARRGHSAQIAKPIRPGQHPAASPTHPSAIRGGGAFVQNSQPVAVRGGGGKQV
UniProt Q9ULW0: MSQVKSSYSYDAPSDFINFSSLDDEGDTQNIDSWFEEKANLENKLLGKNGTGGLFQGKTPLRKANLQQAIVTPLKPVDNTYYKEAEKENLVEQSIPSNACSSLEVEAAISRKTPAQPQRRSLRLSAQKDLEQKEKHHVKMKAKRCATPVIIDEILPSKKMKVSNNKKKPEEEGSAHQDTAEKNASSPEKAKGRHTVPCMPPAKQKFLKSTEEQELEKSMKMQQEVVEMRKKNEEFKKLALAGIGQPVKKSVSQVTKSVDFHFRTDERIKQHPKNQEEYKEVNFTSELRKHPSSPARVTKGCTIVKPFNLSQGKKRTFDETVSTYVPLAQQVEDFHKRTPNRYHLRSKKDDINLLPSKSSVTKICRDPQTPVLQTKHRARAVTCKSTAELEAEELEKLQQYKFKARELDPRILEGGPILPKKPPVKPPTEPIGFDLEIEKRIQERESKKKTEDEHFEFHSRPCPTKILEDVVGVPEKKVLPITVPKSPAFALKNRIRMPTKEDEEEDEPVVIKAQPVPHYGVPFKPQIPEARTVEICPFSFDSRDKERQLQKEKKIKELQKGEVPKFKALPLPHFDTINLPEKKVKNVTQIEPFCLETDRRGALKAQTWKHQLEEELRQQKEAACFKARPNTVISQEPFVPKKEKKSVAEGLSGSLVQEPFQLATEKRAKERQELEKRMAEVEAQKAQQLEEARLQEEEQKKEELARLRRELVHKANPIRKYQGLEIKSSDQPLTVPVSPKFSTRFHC
UniProt Q14974: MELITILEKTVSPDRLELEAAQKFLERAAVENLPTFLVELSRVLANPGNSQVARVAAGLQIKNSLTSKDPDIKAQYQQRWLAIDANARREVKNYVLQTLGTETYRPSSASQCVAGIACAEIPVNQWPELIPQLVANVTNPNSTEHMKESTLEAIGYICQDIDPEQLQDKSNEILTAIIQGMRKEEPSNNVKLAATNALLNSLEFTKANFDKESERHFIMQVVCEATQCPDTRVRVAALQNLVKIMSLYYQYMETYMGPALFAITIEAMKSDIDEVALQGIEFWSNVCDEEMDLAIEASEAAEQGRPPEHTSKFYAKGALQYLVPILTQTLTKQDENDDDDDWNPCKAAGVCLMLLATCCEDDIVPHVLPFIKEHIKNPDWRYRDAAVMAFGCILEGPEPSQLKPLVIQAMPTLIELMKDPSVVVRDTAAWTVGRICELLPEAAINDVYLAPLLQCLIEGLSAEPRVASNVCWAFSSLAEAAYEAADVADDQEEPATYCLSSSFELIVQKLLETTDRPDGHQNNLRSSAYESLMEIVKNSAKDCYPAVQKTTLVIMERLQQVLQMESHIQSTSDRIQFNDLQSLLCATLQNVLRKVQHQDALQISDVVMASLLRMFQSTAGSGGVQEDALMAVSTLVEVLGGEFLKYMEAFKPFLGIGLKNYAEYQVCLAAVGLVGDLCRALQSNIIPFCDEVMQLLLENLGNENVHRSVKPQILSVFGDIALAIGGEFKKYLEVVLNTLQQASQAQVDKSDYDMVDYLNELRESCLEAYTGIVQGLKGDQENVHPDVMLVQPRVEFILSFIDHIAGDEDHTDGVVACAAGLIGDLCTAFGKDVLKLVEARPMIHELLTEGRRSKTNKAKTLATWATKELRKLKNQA
UniProt P52732: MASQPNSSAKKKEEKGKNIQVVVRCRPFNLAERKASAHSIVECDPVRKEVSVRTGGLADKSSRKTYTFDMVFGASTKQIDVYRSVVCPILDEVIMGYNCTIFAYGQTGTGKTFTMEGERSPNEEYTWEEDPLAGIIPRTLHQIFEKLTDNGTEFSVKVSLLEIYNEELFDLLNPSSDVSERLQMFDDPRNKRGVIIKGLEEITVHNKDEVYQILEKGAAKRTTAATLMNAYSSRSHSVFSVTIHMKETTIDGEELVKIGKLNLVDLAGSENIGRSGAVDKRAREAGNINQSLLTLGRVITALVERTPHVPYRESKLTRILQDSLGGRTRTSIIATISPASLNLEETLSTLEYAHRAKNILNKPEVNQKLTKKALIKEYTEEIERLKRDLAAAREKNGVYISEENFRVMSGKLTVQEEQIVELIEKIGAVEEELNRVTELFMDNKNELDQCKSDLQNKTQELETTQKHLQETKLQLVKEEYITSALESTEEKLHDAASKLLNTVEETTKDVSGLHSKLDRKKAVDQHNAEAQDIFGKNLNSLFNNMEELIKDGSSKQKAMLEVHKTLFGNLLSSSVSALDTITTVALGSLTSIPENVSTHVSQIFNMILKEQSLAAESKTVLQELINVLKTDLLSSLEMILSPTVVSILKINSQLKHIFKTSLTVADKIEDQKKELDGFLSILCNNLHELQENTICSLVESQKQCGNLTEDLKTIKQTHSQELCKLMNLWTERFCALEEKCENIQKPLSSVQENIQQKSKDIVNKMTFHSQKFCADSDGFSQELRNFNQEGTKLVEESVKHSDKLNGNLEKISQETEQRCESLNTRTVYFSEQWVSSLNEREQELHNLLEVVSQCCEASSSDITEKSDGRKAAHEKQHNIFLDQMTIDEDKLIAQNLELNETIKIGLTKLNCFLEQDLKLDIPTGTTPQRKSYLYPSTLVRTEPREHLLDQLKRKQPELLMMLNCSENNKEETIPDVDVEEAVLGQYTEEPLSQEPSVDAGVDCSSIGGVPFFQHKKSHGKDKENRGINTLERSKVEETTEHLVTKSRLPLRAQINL

The target in assay [2] is T2, eGFP-HURP S627A (UniProt Q15398).
T2 sequence: T1 sequence with S627A
Nature of the assay: co-IP; mitotic extracts of HeLa Kyoto cells transfected with eGFP, eGFP-HURP WT or eGFP-HURP S627A; IP with anti-GFP mouse monoclonal antibody on protein G agarose, 4°C, RIPA buffer; Western blot.

The target in assay [3] is T3, eGFP-HURP WT (UniProt Q15398).
T3 sequence: T1 sequence
The assay is described as above.

Positions count from the first letter of the chain named. Results are given in words; binding and its absence hold for the method and conditions named. In cells and extracts the contact can be indirect. Some entries that bind do so weakly or less than the wild type. For part of these data: Where a sequence is shown, tags or fusion partners need not be part of it.

Consider Kif5B (from UniProt P33176 1-963), for which the binding result in assay [1] is “binds”; in assay [2], “no binding”; in assay [3] it was “binds”.
Regarding TPX2 (from UniProt Q9ULW0 1-747), the binding result in assay [1], in assay [2] and in assay [3] was “binds” throughout.
For the molecule Importin β (from UniProt Q14974 1-876), the results for the binding result in assay [2] and in assay [3] were “no binding” and “binds”, respectively.
In the case of Eg5 (from UniProt P52732 1-1056), the binding result in assay [1] is listed as “binds weakly”.

B1: Aurora A (enzyme, UniProt O14965 1-403)
chain: MDRSKENCISGPVKATAPVGGPKRVLVTQQFPCQNPLPVNSGQAQRVLCPSNSSQRIPLQAQKLVSSHKPVQNQKQKQLQATSVPHPVSRPLNNTQKSKQPLPSAPENNPEEELASKQKNEESKKRQWALEDFEIGRPLGKGKFGNVYLAREKQSKFILALKVLFKAQLEKAGVEHQLRREVEIQSHLRHPNILRLYGYFHDATRVYLILEYAPLGTVYRELQKLSKFDEQRTATYITELANALSYCHSKRVIHRDIKPENLLLGSAGELKIADFGWSVHAPSSRRTTLCGTLDYLPPEMIEGRMHDEKVDLWSLGVLCYEFLVGKPPFEANTYQETYKRISRVEFTFPDFVTEGARDLISRLLKHNPSQRPMLREVLEHPWITANSSKPSNCQNKESASKQS
On to B1, for which the binding result in assay [1], in assay [2] and in assay [3] was “binds” in each case.

These data come from PMC10361663.
